# The list shows a part of the results. Further columns of the screen follow, without active or inactive calls. The list favours compounds with an active or inconclusive main result. Words in brackets tell the shape of the fitted curve; partial curves, single points and poor fits give uncertain potencies.
# Experiment: Cell-based coincidence reporter assay to measure PMP22 gene transcription in S16 Pmp22-F2sN cells - Confirmatory screen (AID 1508646)
# Details: S16 Schwann cells Pmp22-F2sN, dual luciferase, 24 h
# Outline: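 S16 rat Schwann cells carrying FLuc-2A-NLuc reporter in Pmp22 3' UTR (500-1,000 cells/well) treated with pinned compounds for 24 h at 37C. Dual-luciferase reads: FLuc luminescence first, then NLuc after Stop&Glo.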
# [1] = measured here: FLuc reporter channel
# [2] = measured here: NLuc reporter channel
# Tags tell the direction and shape of the fitted curve.
SMILES,AC50 [1],AC50 [2]
COCCN1Cc2cccc(C(=O)Nc3ccc(Cl)cc3Cl)c2C1=O,"15.3 µM [falling, full curve, poor fit]",–
CCN1CCN(c2nc3c(S(=O)(=O)c4ccc(C)cc4)nnn3c3ccsc23)CC1,"43.2 µM [falling, single point]",–
O=C(CCOc1ccccc1)N(Cc1cccnc1)c1nc2ccc(F)cc2s1,–,"12.2 µM [falling, full curve, poor fit]"
COc1ccc(OC)c(NC(=O)Cn2c(=O)c3cccn3c3ccccc32)c1,"17.2 µM [falling, partial curve, poor fit]",–
Cc1nn2c(=O)cc(COC(=O)c3ccccc3NC(=O)c3cccs3)nc2s1,"15.3 µM [rising, partial curve, poor fit]",–
COc1ccc(-c2cc3nc(C)c(CCC(=O)N4CCN(c5cc(C)ccc5C)CC4)c(C)n3n2)c(OC)c1,"19.3 µM [falling, partial curve, poor fit]",–
CCOC(=O)N1CCN(Cc2nc3cc(NC(=O)C(C)C)ccc3n2C(C)C)CC1,–,"6.85 µM [falling, full curve, poor fit]"
Cc1cccc(CCn2c(=O)c3ccccc3n(CC(=O)Nc3ccccc3F)c2=O)c1,–,"15.3 µM [falling, full curve, poor fit]"
CCOC(=O)N1CCN(Cc2nc3cc(NC(=O)c4ccccc4[N+](=O)[O-])ccc3n2C(C)C)CC1,–,"10.9 µM [falling, full curve, poor fit]"
Cc1ccc(CSc2nc3ccc(NC(=O)COc4ccccc4)cc3s2)cc1,–,"15.3 µM [falling, partial curve, poor fit]"

# Source: PubChem BioAssay (NCATS)
